# The full ranking holds about 16,000 sequences; the median of “Z-score” is about -0.37, and the highest 2% start at about 3.2. This is one part of the list.
# Test system: RBM10 RRM1-ZnF (GST-tagged construct)
# Assay: RNAcompete 7-mer binding Z-score; higher = stronger binding preference
# Outline: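 A designed pool of 241 399 RNAs, each up to 41 nt and transcribed from microarray-derived DNA templates, was used at 1.5 nmol with 20 pmol of GST-tagged RBM10 constructs. The mixture, in 1 ml Hepes pH 7.8 buffer with KCl, NaCl, glycerol, DTT, BSA and glutathione Sepharose beads, was held 30 min at 4°C and then washed four times for 2 min at 4°C. Bound RNA was read out by microarray hybridisation, and enrichment of each heptamer motif was scored as a one-sided Z-score over the probes carrying it.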
row,Sequence,RNAcompete 7-mer binding Z-score
1,AAGCGGA,2.21
2,UUGCCUU,-0.808
3,ACACUGU,-0.487
4,GAGUUGU,0.0983
5,AAAUAAA,-0.467
6,GUUGCGG,1.46
7,GCUGUUA,-0.607
8,CCGCGCG,-0.282
9,UAACCCA,-0.571
10,UUAACCA,-0.548
11,UAGCGGC,-0.132
12,GGAAUCA,0.693
13,ACAUUUG,-0.565
14,CAUCGAA,-0.565
15,UCAUGGG,1.29
16,UCCUCAU,-0.808
17,GCUGGUG,1.4
18,CCUUCUA,-0.821
19,AUGGAUU,1.71
20,UACAUUG,-0.506
21,GUUCGUC,-0.256
22,AUAAAAA,-0.412
23,UACUUAA,-0.681

row,Sequence,RNAcompete 7-mer binding Z-score
1,AAUGACU,-0.269
2,AAACCGC,-0.75
3,UAUGUAC,-0.152
4,UUGCAGA,-0.171
5,CCCCCGG,0.102
6,UUUUGCA,-0.688
7,CGCGAAU,-0.6
8,GUUGCUC,-0.545
9,CCCUUCG,-0.746
10,CAGCCUA,-0.828
11,GCUGAAG,0.699
12,GUGCGGG,3.06
13,UUAACCC,-0.665
14,UCGAGGU,0.647
15,AGAUUUG,0.192
16,GCGAUAC,-0.331
17,UCAAUUU,-0.912
18,CCUGAAC,-0.694
19,GAUAGUA,0.287
20,CUCUCAU,-0.795
21,CGAAUGC,-0.594
22,CUCCCGG,0.0983
23,AUUACCU,-0.753

row,Sequence,RNAcompete 7-mer binding Z-score
1,GCACUUU,-0.886
2,CAGGAAC,0.586
3,CUUUCUU,-0.922
4,UUUCCCU,-0.821
5,GUUCUUU,-0.613
6,GAACCGU,-0.604
7,UGUAAAG,0.173
8,AGACCCG,-1.07
9,AAUAAAG,0.0235
10,UUUGUCG,-0.431
11,GUAUUCG,-0.136
12,AACUUCU,-0.811
13,AACACCU,-0.958
14,ACUGCUG,-0.675
15,AGGAUAU,1.22
16,AGGGUGC,2.6
17,GAUUACU,-0.574
18,GCUGCUU,-0.396
19,GAGUAUA,0.339
20,CAUCUCC,-0.694
21,GGUUAUU,1.04
22,GCUCCCU,-0.548
23,CUUAAAC,-0.678

row,Sequence,RNAcompete 7-mer binding Z-score
1,UUUAACU,-0.782
2,AUCGUGA,-0.132
3,UUUAUAA,-0.578
4,GGACCGG,1.32
5,AGCGUUU,-0.37
6,CGGCCAG,-0.0122
7,UUGCAUG,-0.331
8,GGAGGAA,2.93
9,ACUCGGG,0.667
10,AUCAGGU,0.771
11,UCCAUGU,-0.662
12,CUGUAAG,-0.363
13,GGACCUU,-0.438
14,CAGAUUU,-0.841
15,ACGUCGA,-0.288
16,CGAGAUU,-0.347
17,CUAGGCC,-0.62
18,AUAGUAA,0.131
19,UGGAUCC,0.202
20,GGUAGGG,4.7
21,GCCCGCC,-0.132
22,CAGUUCC,-0.766
23,AUUGCGU,-0.275

row,Sequence,RNAcompete 7-mer binding Z-score
1,GGGCAAG,2.5
2,AAUCGAG,0.0658
3,CCCUAGU,-0.704
4,UGGUUGG,2.53
5,CACAGAU,-0.428
6,GCGGCGA,0.849
7,ACGGGUU,2.65
8,GAGAAGG,4.53
9,UUGACAC,-0.301
10,UGCUUCG,-0.652
11,CACACCG,-0.327
12,UCGACUU,-0.763
13,UUAUGCA,-0.529
14,CUUAACU,-0.782
15,AGUGCUC,-0.392
16,UGGUUAA,1.58
17,AGAGAAU,0.277
18,CAGACAU,-0.418
19,AAGGUUC,0.745
20,GUAAAUA,0.069
21,CUGUGCG,-0.0869
22,CGCCCCA,-0.587
23,AUCACUG,-0.539

row,Sequence,RNAcompete 7-mer binding Z-score
1,UGUUUGG,0.917
2,ACUGAAG,0.183
3,CGACUUG,-0.704
4,ACAAUCA,-0.587
5,GAGGGAG,3.2
6,CCGGAGC,0.0625
7,AGUUAGG,2.17
8,UGACAGG,2.13
9,AAUUAUC,-0.717
10,AUACCGA,-0.678
11,CUAGGUA,0.599
12,UGCAGUU,-0.272
13,AAGACCG,-0.318
14,UGUCAGA,-0.457
15,ACCCGCA,-0.626
16,AUGCCGA,-0.665
17,CUGCCAG,-0.613
18,CGGUCGG,0.485
19,GCAACGG,1.29
20,AACGGGA,3.45
21,AAACGCU,-0.629
22,CUAAAAA,-0.425
23,CGACUGC,-0.665

row,Sequence,RNAcompete 7-mer binding Z-score
1,UAUUGAG,0.0138
2,CCGCAUC,-0.776
3,GAUUAGG,2.54
4,AAUCAAU,-0.451
5,CGUGUGC,-0.23
6,UGGUGAU,1.2
7,AAUACCG,-0.763
8,CCAUGGA,0.131
9,CUGAAUU,-0.655
10,CCUGACG,-0.496
11,GUCAGUG,0.67
12,UGUAAUG,0.0853
13,GCUCGUC,-0.558
14,AUUUUCU,-0.727
15,UGACAGC,-0.282
16,UUCCUUG,-0.675
17,AAGAGAG,1.48
18,CGUGUGU,-0.0155
19,CACACUU,-0.802
20,GUUGGAG,2.4
21,CCGCUUC,-0.808
22,CGACCCG,-0.496
23,GGCUUGC,-0.324

row,Sequence,RNAcompete 7-mer binding Z-score
1,CACGUCA,-0.259
2,GGAGCUU,0.553
3,ACUGGCG,0.017
4,UACACGA,-0.376
5,UACAAUA,-0.353
6,GCUAGUA,-0.249
7,AAUGGCG,1.11
8,GUAUAAU,0.0333
9,CCAGGUG,0.829
10,CAUAUAG,-0.162
11,AACGGCU,-0.0902
12,AGUAUAA,-0.181
13,CGAGGGG,2.86
14,AAGUGGG,3.73
15,ACAUAGU,-0.292
16,AGUGCAC,0.056
17,UAGGCCG,-0.0707
18,GGUGAAA,1.97
19,ACUGACG,-0.126
20,GAGUCCC,-0.314
21,ACACGGA,0.511
22,GUAGGGG,4.54
23,CUAAACC,-0.756

# From the supplement of paper PMC5499739
